The values below come from article PMC4559962.

By UniProt entry, the sequences of proteins in these tests, tags left out.
UniProt P25694: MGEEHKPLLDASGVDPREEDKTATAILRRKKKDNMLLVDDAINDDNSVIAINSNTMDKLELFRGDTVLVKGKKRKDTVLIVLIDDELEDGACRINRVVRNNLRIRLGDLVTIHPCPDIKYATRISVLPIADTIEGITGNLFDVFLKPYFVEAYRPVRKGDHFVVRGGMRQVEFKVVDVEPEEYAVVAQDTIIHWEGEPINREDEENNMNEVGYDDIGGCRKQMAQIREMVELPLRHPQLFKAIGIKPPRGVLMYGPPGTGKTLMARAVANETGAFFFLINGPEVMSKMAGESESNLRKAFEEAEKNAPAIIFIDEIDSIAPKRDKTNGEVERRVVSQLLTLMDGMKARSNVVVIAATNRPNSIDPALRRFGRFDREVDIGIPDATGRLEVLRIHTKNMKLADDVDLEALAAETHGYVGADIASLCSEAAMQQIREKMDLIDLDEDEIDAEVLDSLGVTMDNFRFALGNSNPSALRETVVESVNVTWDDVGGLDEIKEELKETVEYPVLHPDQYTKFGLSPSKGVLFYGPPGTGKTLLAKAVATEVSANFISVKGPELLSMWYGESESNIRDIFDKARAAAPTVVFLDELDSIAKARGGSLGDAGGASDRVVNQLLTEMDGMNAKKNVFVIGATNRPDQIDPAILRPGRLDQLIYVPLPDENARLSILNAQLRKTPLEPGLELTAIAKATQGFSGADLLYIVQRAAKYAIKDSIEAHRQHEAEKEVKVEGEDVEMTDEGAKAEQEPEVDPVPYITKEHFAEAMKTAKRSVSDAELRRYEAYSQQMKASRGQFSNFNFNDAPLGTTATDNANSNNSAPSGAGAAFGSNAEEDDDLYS

In experiment [1] the target is T1, HA-Wss1 WLM* (expressed in yeast) (S. cerevisiae) (UniProt P38838).
T1 sequence: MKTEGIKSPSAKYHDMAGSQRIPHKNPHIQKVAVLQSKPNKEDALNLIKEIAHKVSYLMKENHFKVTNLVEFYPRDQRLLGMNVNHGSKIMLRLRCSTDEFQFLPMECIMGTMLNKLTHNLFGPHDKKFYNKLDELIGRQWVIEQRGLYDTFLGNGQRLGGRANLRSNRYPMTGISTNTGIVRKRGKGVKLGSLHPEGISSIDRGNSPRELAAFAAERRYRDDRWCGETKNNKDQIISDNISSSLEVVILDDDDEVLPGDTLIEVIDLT
Description: co-IP; HA-Wss1 constructs expressed from pYEPGAP-URA3 in yeast; lysates (150 mM NaCl, 50 mM Tris pH 7.4, 0.5% Triton X-100, 30 mM NEM) on anti-HA beads, 1 hr at 4°C; western blot; DOA1-FLAG cells (Figure 5B) or wss1Δ cells treated with 0.2 μg/ml 4-NQO (Figure 8C).

The target of experiment [2] is T2, HA-Wss1 F2R (expressed in yeast) (S. cerevisiae) (UniProt P38838).
T2 sequence: T1 sequence with N115H, K116E, F152S, R218S, R219S
The description is as above.

Experiment [3] has as its target T3, HA-Wss1 (wild type, expressed in yeast) (S. cerevisiae) (UniProt P38838).
T3 sequence: T1 sequence with N115H, K116E
Described as above.

Experiment [4] concerns the target T4, MBP-Wss1 (wild type) (S. cerevisiae) (UniProt P38838).
T4 sequence: T1 sequence with N115H, K116E
Description: pull-down; CNBr-crosslinked MBP-Wss1 beads with lysates of CDC48-TAP cells transformed with Wss1 constructs; western blot; only the target purified.

For experiment [5], the target named is T5, MBP-Wss1 F2R (F152S, R218,219S) (S. cerevisiae) (UniProt P38838).
T5 sequence: T1 sequence with N115H, K116E, F152S, R218S, R219S
Put plainly: pull-down; purified MBP-Wss1 proteins on amylose beads with purified Cdc48 or adaptor proteins; PAGE with Coomassie staining, western blot with α-His6, ImageJ; both purified. A general note: In western blotting, separated proteins are transferred to a membrane and probed.

Positions count from the first letter of the chain named. No constants are given. Whether binding was seen depends on the method and setting. For some assays here: In cells and extracts the contact can be indirect. Some binding calls cover weakened binding; strength is not graded here. Tags and fused reporters may be left off the sequences shown.

For “Cdc48 (endogenous) (from UniProt P25694 1-835) (enzyme)”, the binding entry is given as “binds” in experiment [1], “no binding” in experiment [2] and “binds” in experiment [3].

“Cdc48-TAP (from UniProt P25694 1-835) (enzyme)”: in experiment [4], the binding result is on record as “binds”.

For “GST-Cdc48 (full length) (from UniProt P25694 1-835) (enzyme)”, the binding entry in experiment [5] is on record as “no binding”.
